These are literature values, as cited in patent US20240247069A1, “FGFR3 BINDING MOLECULES AND METHODS OF USE THEREOF” (Regeneron Pharmaceuticals, Inc., priority 2023, published 2024).

Like-named read-outs stand apart in the source and are kept apart here.

This series has as its system FGFR3. As to conditions: cited from earlier work.
Setting [1] is: Table T-3, exemplary FGFR3 D3 binding sequences from cited PCT publications.
The mark [2] stands for this setting: literature antibodies, sequences from cited PCT publications.

B1: PRQ-021: anti-FGFR3 IIIc antibody of WO 2006/048877 A2; VH SEQ ID NO:32, VL SEQ ID NO:33 (antibody, V domains shown)
VH: QVQLVQSGAEVKKPGSSVKVSCKASGGTFSSYAISWVRQAPGQGLEWMGGIIPIFGTANYAQKFQGRVTITADESTSTAYMELSSLRSEDTAVYYCARDNWFKPFSDVWGQGTLVTVSS
VL: DIVMTQSPDSLAVSLGERATINCRSSQSVLYSSNNKNYLAWYQQKPGQPPKLLIYWASTRESGVPDRFSGSGSGTDFTLTISSLQAEDVAVYYCQQYDSIPYTFGQGTKVEIKRT
In the case of B1, the Activity entry runs as follows: under setting [1], “Antagonistic”; under setting [2], “Antagonistic”.

B2: MS-Pro-24: anti-FGFR3 Ig-like domain 3 antibody of WO 2002/102972 A2; VH SEQ ID NO:34, VL SEQ ID NO:35 (antibody, V domains shown)
VH: QVQLVQSGAEVKKPGSSVKVSCKASGGTFSSYAISWVRQAPGQGLEWMGGIIPIFGTANYAQKFQGRVTITADESTSTAYMELSSLRSEDTAVYYCARVNHWTYTFDYWGQGTLVTVSS
VL: DIVLTQSPATLSLSPGERATLSCRASQSVSSSYLAWYQQKPGQAPRLLIYGASSRATGVPARFSGSGSGTDFTLTISSLEPEDFATYYCQQSNYPDTFGQGTKVEIKRT
Regarding B2, the Activity result was “Antagonistic” under setting [1] and “Antagonistic” under setting [2].

B3: PRQ-024: anti-FGFR3 IIIc antibody of WO 2006/048877 A2; VH SEQ ID NO:34, VL SEQ ID NO:48 (antibody, V domains shown)
VH: QVQLVQSGAEVKKPGSSVKVSCKASGGTFSSYAISWVRQAPGQGLEWMGGIIPIFGTANYAQKFQGRVTITADESTSTAYMELSSLRSEDTAVYYCARVNHWTYTFDYWGQGTLVTVSS
VL: DIVLTQSPATLSLSPGERATLSCRASQSVSSSYLAWYQQKPGQAPRLLIYGASSRATGVPARFSGSGSGTDFTLTISSLEPEDFATYYCQQMSNYPDTFGQGTKVEIKRT
For the molecule B3, the Activity result was “Antagonistic” under setting [1] and “Antagonistic” under setting [2].

B4: MS-Pro-21: anti-FGFR3 Ig-like domain 3 antibody of WO 2002/102972 A2; VH SEQ ID NO:32, VL SEQ ID NO:33 (antibody, V domains shown)
VH: QVQLVQSGAEVKKPGSSVKVSCKASGGTFSSYAISWVRQAPGQGLEWMGGIIPIFGTANYAQKFQGRVTITADESTSTAYMELSSLRSEDTAVYYCARDNWFKPFSDVWGQGTLVTVSS
VL: DIVMTQSPDSLAVSLGERATINCRSSQSVLYSSNNKNYLAWYQQKPGQPPKLLIYWASTRESGVPDRFSGSGSGTDFTLTISSLQAEDVAVYYCQQYDSIPYTFGQGTKVEIKRT
As to B4, the Activity result is given as “Antagonistic” under setting [1] and “Antagonistic” under setting [2].
